Our source for the enrichment ratio values is a collection of fitness landscapes (doi:10.1126/science.1257360).

The other results are listed elsewhere or left out. Bounds are passed on as bounds.

First the molecules themselves.
B1: PhoQ; a variant is named by its letters at X, in order, P23837 (parent)
chain: MKKLLRLFFPLSLRVRFLLATAAVVLVLSLAYGMVALIGYSVSFDKTTFRLLRGESNLFYTLAKWENNKLHVELPENIDKQSPTMTLIYDENGQLLWAQRDVPWLMKMIQPDWLKSNGFHEIEADVNDTSLLLSGDHSIQQQLQEVREDDDDAEMTHSVAVNVYPATSRMPKLTIVVVDTIPVELKSSYMVWSWFIYVLSANLLLVIPLLWVAAWWSLRPIEALAKEVRELEEHNRELLNPATTRELTSLVRNLNRLLKSERERYDKYRTTLTDLTHSLKTPLXXLQXXLRSLRSEKMSVSDAEPVMLEQISRISQQIGYYLHRASMRGGTLLSRELHPVAPLLDNLTSALNKVYQRKGVNISLDISPEISFVGEQNDFVEVMGNVLDNACKYCLEFVEISARQTDEHLYIVVEDDGPGIPLSKREVIFDRGQRVDTLRPGQGVGLAVAREITEQYEGKIVAGESMLGGARMEVIFGRQHSAPKDE

Variants of B1 are the subject of the assay. In words: enrichment ratio after two sorts for PhoP signalling (ratio (wild type AVST 3.29)); higher = more functional. As to conditions: with PhoP (E. coli).
Regarding WHDP, the enrichment ratio is not above 0.25.
As for YTAQ, the figure is not above 0.25.
As for NTYL, the figure is not above 0.25; as for EDCY, 0.972; as for GSRS, not above 0.25.
As for DCGG, the enrichment ratio was not above 0.25.
As for AKLV, the figure is 16.2; as for HQFE, not above 0.25; as for LTPY, not above 0.25.
As for YFSK, the figure is not above 0.25; as for LENC, not above 0.25; as for QQTV, not above 0.25.
As for VPQV, the enrichment ratio is not above 0.25.
As to YVLF, the enrichment ratio is 2.17.
For VPQD, the enrichment ratio was not above 0.25.
As for TFVW, the figure is not above 0.25.
For LFCC, the enrichment ratio was not above 0.25.
With FGVH, the enrichment ratio was not above 0.25.
The value for HLNY was not above 0.25.
The value for TDCN was 15.7.
Turning to DFPR, the enrichment ratio is not above 0.25.
Take FRKT: the enrichment ratio was not above 0.25.
The value for WIHL was not above 0.25; that for SKRC was not above 0.25.
Take IKPN: the enrichment ratio was not above 0.25.
The value for FGDW was not above 0.25; that for YQSW was not above 0.25.
AETP: the enrichment ratio was not above 0.25.
The value for ICNY was not above 0.25.
For YSQK, the enrichment ratio was not above 0.25.
Take PPHF: the enrichment ratio is not above 0.25.
As for KQKY, the enrichment ratio was not above 0.25.
The value for PMPY was not above 0.25; that for ASRF was not above 0.25.
For HVHW, the enrichment ratio was not above 0.25.
On to SGHK, for which the enrichment ratio was not above 0.25.
Turning to LHGP, the enrichment ratio was not above 0.25.
As for WLIL, the figure is not above 0.25; as for NSEV, not above 0.25.
As for YIYD, the figure is not above 0.25; as for ILMN, not above 0.25; as for IWYQ, not above 0.25.
As for SMLI, the figure is 6.17; as for DECC, not above 0.25.
SQNW: the enrichment ratio is not above 0.25.
With YDRD, the enrichment ratio was not above 0.25.
For the variant HQVW, the enrichment ratio is not above 0.25.
As for TNGM, the figure is 6.62.
Consider IAAR, for which the enrichment ratio was not above 0.25.
As for YDHV, the figure is not above 0.25; as for WECQ, not above 0.25.
Take ACYR: the enrichment ratio was not above 0.25.
As for NAHR, the figure is not above 0.25.
For MHAG, the enrichment ratio is not above 0.25.
As for LGDQ, the figure is not above 0.25.
The value for YGMF was not above 0.25; that for KPIG was not above 0.25.
Consider MNHH, for which the enrichment ratio is not above 0.25.
For WKEL, the enrichment ratio was not above 0.25.
For FCND, the enrichment ratio is not above 0.25.
The value for QAGE was not above 0.25; that for QMGR was not above 0.25.
The value for VASF was not above 0.25; that for SWNR was not above 0.25; that for CTHL was not above 0.25.
The value for AWEC was not above 0.25; that for GRFY was not above 0.25; that for AILK was 2.69.
In the case of YSQE, the enrichment ratio was not above 0.25.
The value for APLD was not above 0.25.
The value for RSLN was not above 0.25.
The value for WGGS was not above 0.25; that for VPLP was not above 0.25.
For IFEF, the enrichment ratio is not above 0.25.
As for IASN, the figure is not above 0.25; as for NAGN, not above 0.25.
As for APMM, the figure is not above 0.25.
The value for WETP was not above 0.25; that for VHYL was not above 0.25.
ELNY: the enrichment ratio is not above 0.25.
As for SHGY, the enrichment ratio came to 10.2.
As for WKVK, the figure is not above 0.25; as for PRAG, not above 0.25.
The value for WRLR was 0.724; that for EDGW was not above 0.25.
For IVPS, the enrichment ratio is not above 0.25.
In the case of WPSR, the enrichment ratio is not above 0.25.
The value for QLNH was not above 0.25.
The value for MMKF was not above 0.25.
As for ITNM, the figure is not above 0.25.
Regarding VQRN, the enrichment ratio was not above 0.25.
As for DWCL, the figure is not above 0.25; as for AQNI, not above 0.25.
The value for AMGD was 11.5.
In the case of NSHG, the enrichment ratio is not above 0.25.
VIFM: the enrichment ratio is not above 0.25.
As for KNSW, the figure is not above 0.25; as for YICL, 3.21; as for DEND, not above 0.25.
In the case of HKAD, the enrichment ratio is not above 0.25.
In the case of TYTY, the enrichment ratio was 0.386.
As for HFKV, the enrichment ratio is not above 0.25.
As for IDST, the figure is not above 0.25; as for IPLQ, not above 0.25.
For the variant WFIQ, the enrichment ratio is not above 0.25.
Take ICGQ: the enrichment ratio is not above 0.25.
Take EAYW: the enrichment ratio is not above 0.25.
As for EYFE, the figure is not above 0.25; as for TKYG, not above 0.25; as for KSEI, not above 0.25.
The value for YFYY was not above 0.25; that for MYGW was not above 0.25.
As for RRGP, the figure is not above 0.25; as for QHYH, not above 0.25; as for DFVP, not above 0.25.
Consider RMMT, for which the enrichment ratio was not above 0.25.
As for RGLW, the figure is not above 0.25; as for NALQ, not above 0.25; as for PIWG, not above 0.25.
The value for IYKY was not above 0.25.
The value for TPWY was not above 0.25; that for DPEY was not above 0.25.
Consider DTDT, for which the enrichment ratio was not above 0.25.
As for INSM, the figure is 0.298; as for LMYE, not above 0.25; as for SYNI, not above 0.25.
The value for VAIN was not above 0.25.
As to LYPA, the enrichment ratio is not above 0.25.
Take WPNW: the enrichment ratio is not above 0.25.
On to PLDP, for which the enrichment ratio was not above 0.25.
As to LIHM, the enrichment ratio is not above 0.25.
With QEPQ, the enrichment ratio was not above 0.25.
In the case of FVIL, the enrichment ratio is not above 0.25.
As to LFVL, the enrichment ratio was not above 0.25.
The value for SFYD was not above 0.25; that for HHSK was not above 0.25; that for SHNN was 0.915.
For the variant QLFN, the enrichment ratio is not above 0.25.
In the case of AEHK, the enrichment ratio is not above 0.25.
Regarding LHML, the enrichment ratio was not above 0.25.
In the case of VCLG, the enrichment ratio was found to be 3.83.
As for QKSM, the enrichment ratio is not above 0.25.
The value for PNTE was not above 0.25; that for KTNK was not above 0.25; that for DHSW was not above 0.25.
The value for GWYA was not above 0.25; that for GQFM was not above 0.25; that for FTWK was not above 0.25.
The value for DYDW was not above 0.25.
Regarding VKQS, the enrichment ratio is 2.04.
On to WPGF, for which the enrichment ratio is not above 0.25.
Consider TPHT, for which the enrichment ratio was not above 0.25.
Consider FSAI, for which the enrichment ratio was 4.16.
As for SSGR, the figure is not above 0.25; as for PRNG, not above 0.25; as for AWRR, not above 0.25.
Take EPCV: the enrichment ratio was not above 0.25.
IMNN: the enrichment ratio is not above 0.25.
As to QDSG, the enrichment ratio is not above 0.25.
EVMK: the enrichment ratio was not above 0.25.
The value for GLVD was not above 0.25.
Regarding LPAW, the enrichment ratio is not above 0.25.
As for SLRM, the figure is not above 0.25; as for TKCC, 13.1; as for HFWN, not above 0.25.
The value for LCNW was not above 0.25; that for YNYG was not above 0.25; that for HMLP was not above 0.25.
For DIQG, the enrichment ratio was not above 0.25.
As for NMDR, the enrichment ratio was not above 0.25.
PGVW: the enrichment ratio is not above 0.25.
The value for TDDY was not above 0.25; that for LGYG was not above 0.25.
The value for MNQM was not above 0.25; that for ATKP was not above 0.25; that for LMPE was not above 0.25.
Turning to HEYG, the enrichment ratio was not above 0.25.
Consider ISGI, for which the enrichment ratio was not above 0.25.
For the variant FDYK, the enrichment ratio is not above 0.25.
The value for YPAN was not above 0.25.
As for MRLY, the figure is not above 0.25.
The value for EFGD was not above 0.25.
For the variant VDGR, the enrichment ratio was not above 0.25.
As for SSQC, the figure is 1.27; as for AGRP, not above 0.25.
With YTGH, the enrichment ratio was not above 0.25.
Turning to YAYH, the enrichment ratio is not above 0.25.
The value for HDGY was not above 0.25; that for RMYK was not above 0.25; that for LDGR was not above 0.25.
Regarding DNWV, the enrichment ratio was not above 0.25.
The value for PSTM was not above 0.25; that for PREA was not above 0.25.
The value for PNCS was not above 0.25; that for KSAW was not above 0.25.
